Assay results published in PubChem BioAssay AID1645887 (National Center for Advancing Translational Sciences (NCATS), 2021).
“And” between values parts separate entries of the source, which are not always exact repeats. Identical values can stand only once. Hit rate of the full screen: of about 16,000 compounds, about 40 (0.2%) were called active. Another 1% or so got no clear call; they are omitted. Calls come from the whole dose curve; as a rule, active = well fitted activation curve with a large enough effect; inconclusive = small, poorly fitted or top-dose-only effect, or another doubt; inactive = no such curve, though single readings can be large or run the other way. The list shows a part of the results.

The molecules below were run against Rap guanine nucleotide exchange factor 4 (Homo sapiens) (UniProt Q8WZA2) (assay: Validation qHTS for agonist of cAMP-regulated guanine nucleotide exchange factor 4 (EPAC2)). Conditions: EPAC2 Rap1B BODIPY-GDP exchange, fluorescence; activation: stronger effect = higher value.
Chain of UniProt Q8WZA2 (Q8WZA2 whole entry, looked up): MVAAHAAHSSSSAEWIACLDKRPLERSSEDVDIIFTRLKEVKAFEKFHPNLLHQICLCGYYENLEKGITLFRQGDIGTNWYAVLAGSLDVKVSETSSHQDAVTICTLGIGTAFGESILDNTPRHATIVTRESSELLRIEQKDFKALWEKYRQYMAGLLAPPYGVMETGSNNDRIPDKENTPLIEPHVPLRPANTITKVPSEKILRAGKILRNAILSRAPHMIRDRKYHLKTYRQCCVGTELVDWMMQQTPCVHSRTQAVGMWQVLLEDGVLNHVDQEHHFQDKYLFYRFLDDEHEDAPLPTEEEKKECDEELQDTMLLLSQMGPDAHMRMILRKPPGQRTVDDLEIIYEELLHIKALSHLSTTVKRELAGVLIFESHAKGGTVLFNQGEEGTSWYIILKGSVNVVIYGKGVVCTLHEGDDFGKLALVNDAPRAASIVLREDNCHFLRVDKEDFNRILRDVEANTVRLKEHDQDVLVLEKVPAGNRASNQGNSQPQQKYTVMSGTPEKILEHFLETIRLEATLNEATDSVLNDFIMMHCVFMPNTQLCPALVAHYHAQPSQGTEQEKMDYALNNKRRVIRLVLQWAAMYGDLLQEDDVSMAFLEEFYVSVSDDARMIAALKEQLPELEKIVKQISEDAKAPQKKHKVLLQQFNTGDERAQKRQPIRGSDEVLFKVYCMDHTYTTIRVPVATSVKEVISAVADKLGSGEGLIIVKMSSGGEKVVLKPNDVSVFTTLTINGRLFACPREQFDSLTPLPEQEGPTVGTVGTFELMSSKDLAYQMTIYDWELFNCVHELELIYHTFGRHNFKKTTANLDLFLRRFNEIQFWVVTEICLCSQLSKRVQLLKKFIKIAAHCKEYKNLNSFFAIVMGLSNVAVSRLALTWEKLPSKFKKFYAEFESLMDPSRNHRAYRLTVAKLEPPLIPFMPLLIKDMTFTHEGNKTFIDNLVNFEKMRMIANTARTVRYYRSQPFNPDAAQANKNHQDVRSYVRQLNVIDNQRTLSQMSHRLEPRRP
How it was run: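 Signal normalized against 6.5 mM cAMP as agonist control. Mix of EPAC2 (100 nM), RAP1B-BODIPY-GDP (250 nM) and GDP (50 uM) was read kinetically at 480/540 nm, every 5 min over 30 min, after 5 min room-temperature incubation with compound.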
% is set by controls: 0 for no effect and ±100 for the full control effect.
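Note: exchange makes BODIPY-GDP fluorescence drop when released from Rap1B; series mostly up to about 150 µM.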

activation, inactive:
CC(C)=CCOc1ccc(/C=C/C(=O)c2ccc(OCC=C(C)C)cc2OCC(=O)O)cc1 -11.1%
C[C@@H]1CN(CCCn2c3ccccc3c3ccccc32)C[C@H](C)N1 -19.1%
COC1=CC(C)C2CC3OC(=O)CC4C(C)=C(OC)C(=O)C([C@]2(C)C1=O)[C@]34C (some centres undefined) 4.87%
O=c1nc2ccccc2c2n1C[C@H](CN1CCN(c3ccccc3)CC1)N2 -8.13%
COc1ccc(O)c(CN2CCOc3c(cc(-c4cccc(OC)n4)cc3OC)C2)c1 -27.5%
CC(C)(O)CCC(O)[C@@](C)(O)C1CC[C@]2(O)C3=CC(=O)C4CC(O)C(O)C[C@]4(C)C3CC[C@]12C (some centres undefined) 2.04%
COc1ccccc1-c1coc2cc(O)ccc2c1=O -13.1%
CC(=O)N[C@@H](Cc1c[nH]c2ccccc12)C(=O)O -17%
Oc1ccc(C2CNCCc3c2cc(O)c(O)c3Cl)cc1 (centres undefined) -1.59% and -60.5%
COc1ccccc1CNc1ncnc2ccc(-c3c(C)noc3C)cc12 1.62%
CC(C)c1c(C(=O)NC(c2cccnc2)C(F)(F)F)cnn1-c1nccc(-c2cccs2)n1 (centres undefined) -5.04%
CC(C(=O)O)c1cccc(Oc2ccccc2)c1 (centres undefined) -2.76% and -10.6%
CCC1CN(Cc2cccn2-c2ccccn2)Cc2cc(OC)ccc2O1 (centres undefined) -10.9%
CCn1c(-c2cccc(OC)c2)nc2cc(NC(C)=O)cc(C(=O)N3CCCC(C(C)=O)C3)c21 (centres undefined) -22.1%
O=C(Nc1cccc(F)c1)N1CC[C@@]2(CCCN(C(=O)c3ccncc3)C2)C1 -2.29%
O=C(C[n+]1ccnc2ccccc21)c1ccc(Br)cc1 -29.6%
O=C(Nc1cccc(F)c1)N1CC[C@@]2(CCCN(C(=O)c3cc(C(F)(F)F)cc(C(F)(F)F)c3)C2)C1 -26.4%
CC(C)c1c(C(=O)N(C)C2CCN(C)CC2)cnn1-c1nccc(-c2ccco2)n1 -6.08%
COc1ccc(/C=N/NC(=O)c2ccncc2)cc1OC -10.5%
COC(=O)N1CCC2(CC1)CN(C(c1ccccc1)c1ccccc1)C2 11.6%
COc1cc(C(=S)N2CCOCC2)ccc1O -5.22%
O=C1OC(c2ccc(O)cc2)(c2ccc(O)cc2)c2ccccc21 2.69% and -5.77%
O=S1(=O)CCOCCCN1Cc1ccc(F)cc1 -5.75%
COc1ccc2c(C)cc(=O)oc2c1 -2.12%
C=C[C@@H]1c2cc(C)ccc2N(S(=O)(=O)c2ccc(C)cc2)[C@H](c2ccc(C(C)(F)F)cc2)C1(C#N)C#N -11.1%
COC(=O)N1CCC2(CCCN(C(=O)Nc3cccc(C#N)c3)C2)CC1 -4.53%
CCCc1ncc(C[n+]2ccccc2C)c(N)n1 -1.43% and -14.7%
N#Cc1cccc(NC(=O)N2CC[C@@]3(CCCNC3)C2)c1 8.96%
CCCCCCCCCCCCCCCC(=O)NCC(COP(=O)([O-])OCC[N+](C)(C)C)OCC (centres undefined) -69.1%
CS(=O)(=O)N1CCC2(CC1)CN(Cc1cc(C(F)(F)F)cc(C(F)(F)F)c1)C2 -12.4%
COc1ncc2nc(-c3cn(C)c4ccccc34)c(=O)n(-c3ccccc3)c2n1 10.4%
Cc1nc2cnc(N(C)C)nc2n(-c2ccccc2)c1=O -2.69%
CC1(C)C(=O)C2C[C@]3(O)C4=CC(=O)OC(c5ccoc5)[C@]4(C)CCC3[C@](C)(C2=O)C1CC(=O)O (some centres undefined) 10.9%
CO/N=C(\C(=O)N[C@@H]1C(=O)N2C(C(=O)O)=CCS[C@H]12)c1csc(N)n1 1.75%
O=C1NC(=O)C(c2ccccc2[N+](=O)[O-])=C1Nc1ccc(O)c(Cl)c1 -18.9% and 0.687% and 17.2%
CC(=O)c1ccccc1-c1ccc2c(c1)CC(CNC(=O)c1cc(C)on1)O2 (centres undefined) -28.1%
CC(C)Cc1nc2cc(NS(=O)(=O)N(C)C)cc(C(=O)N3CCc4sccc4C3)c2n1C -1.35%
Cc1c(C(=O)NCc2ccc(F)cc2)sc2ncnc(NCC3CCCO3)c12 (centres undefined) -21.4%
O=C(O)[C@H]1CCCN1 -0.0689%
Cc1ncc2c(c1CNC(=O)c1ccc3c(c1)OCO3)CCN(C(=O)c1coc3c1C(=O)CCC3)C2 -2.1%
CCCCCCCCCCCCCCCC[n+]1ccc(/C=C/c2c[nH]c3ccccc23)c2ccccc21 -69.4%
N#C/C(=C\c1ccc(O)c(O)c1)C(=O)Nc1ccccc1 9.69% and -18.8%
COc1ccc([N+](=O)[O-])c2c1CCN2C(=O)CC[C@H](N)C(=O)O -5.13%
Cc1ccccc1C(=O)N1CCc2c(cnc(C)c2CNC(=O)c2ccc3c(c2)OCO3)C1 -7.83%
CCN(CC)Cc1ccc(Nc2ccnc3cc(Cl)ccc23)cc1O 1.42%
CN1Cc2c(C(=O)OC(C)(C)C)ncn2-c2ccsc2C1=O -1.73%
COc1cccc(N2[C@@H](CC(C)=O)c3ccccc3S2(=O)=O)c1 1.65%
CN(C)c1ncc2nc(-c3ccccc3)c(=O)n(C[C@H]3CCCO3)c2n1 -6.44%
COc1ccc(CNc2ncnc3ccc(-c4ccc(C(=O)N(C)C)cc4)cc23)c(OC)c1 -0.17%
Brc1c(Br)c(Br)c2[nH]cnc2c1Br -20.4%
c1nc(N2CCNCC2)c2cc(-c3ccoc3)ccc2n1 -0.0801%
Cc1c(Cl)cccc1Nc1ccccc1C(=O)O 4.68%
COc1ccccc1-c1nc(N(C)Cc2ccco2)c2ccccc2n1 -2.34%
Cc1cc2c(c(-c3cnccn3)c1)OC(CNC(=O)c1ccc(-n3nc(C)cc3C)cc1)C2 (centres undefined) -7.18%
